One may read the Kd as a measure of binding affinity in units of concentration. A high value points to lower affinity.

For the test, the target named is wild type eIF6 (eIF6^WT), purified (UniProt O55135). The test can be described thus: SPR. (In general: SPR reads the build-up and loss of mass on a sensor chip optically.)

B1: G3BP1, purified (natural protein)
chain: not shown
In the case of B1, the equilibrium dissociation constant (Kd) is about 9.72 µM.

The values above are taken from article PMC11602552 (The Journal of Experimental Medicine, 2024).
